# Data published in the supplement of paper PMC8728848.
# This is one part of the list.
# Experiments:
# Experiment in all cases: glycan array binding signal (z-score within array); higher = stronger binding
# Details in all cases: glycan notation: IUPAC condensed, linker removed
# Gal(a1-4)GlcNAc = target: Gal(a1-4)GlcNAc
# Summary of the method: (§1)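 The binding signal is a Z-score computed within each array. Data were drawn from 3228 arrays in the Consortium for Functional Glycomics database, restricted to those with a known protein sequence. Scores were averaged over arrays of the same protein sequence at different concentrations or buffers, and over linkers, and negative values can be taken as non-binding.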
# Gal(a1-6)Glc = target: Gal(a1-6)Glc
# Summary of the method: as §1
# Gal(b1-2)Gal = target: Gal(b1-2)Gal
# Summary of the method: as §1
# Gal(b1-3)Gal = target: Gal(b1-3)Gal
# Summary of the method: as §1
# Gal(b1-3)GalNAc = target: Gal(b1-3)GalNAc
# Summary of the method: as §1
# [1] = target: Gal(b1-3)GalNAc(b1-3)Gal(a1-4)Gal(b1-4)Glc
# Summary of the method: as §1
# [2] = target: Gal(b1-3)GalNAc(b1-3)Gal(b1-4)Glc
# Summary of the method: as §1
# [3] = target: Gal(b1-3)GalNAc(b1-3)Gal(b1-4)GlcNAc
# Summary of the method: as §1
# [4] = target: Gal(b1-3)GalNAc(b1-4)Gal(b1-4)Glc
# Summary of the method: as §1
# [5] = target: Gal(b1-3)GalNAc(b1-4)[Neu5Ac(a2-3)]Gal(b1-4)Glc
# Summary of the method: as §1
# [6] = target: Gal(b1-3)[Fuc(a1-4)]GlcNAc
# Summary of the method: as §1
# [7] = target: Gal(b1-3)[Fuc(a1-4)]GlcNAc(b1-3)Gal(b1-4)GlcNAc
# Summary of the method: as §1
# [8] = target: Gal(b1-3)[Fuc(a1-4)]GlcNAc(b1-3)Gal(b1-4)[Fuc(a1-3)]GlcNAc
# Summary of the method: as §1
# [9] = target: Gal(b1-3)[GlcNAc(b1-6)]GalNAc
# Summary of the method: as §1
# [10] = target: Gal(b1-3)[GlcNAc(b1-6)]GlcNAc
# Summary of the method: as §1
# [11] = target: Gal(b1-3)[Neu5Ac(a2-6)]GalNAc
# Summary of the method: as §1
# [12] = target: Gal(b1-3)[Neu5Ac(a2-6)]GlcNAc
# Summary of the method: as §1
# [13] = target: Gal(b1-3)[Neu5Ac(a2-6)]GlcNAc(a1-4)Gal(b1-4)Glc
# Summary of the method: as §1
# [14] = target: Gal(b1-3)[Neu5Ac(b2-6)]GlcNAc
# Summary of the method: as §1
# [15] = target: Gal(b1-4)GalNAc(a1-3)[Fuc(a1-2)]Gal(b1-4)GlcNAc
# Summary of the method: as §1
# [16] = target: Gal(b1-4)GalNAc(b1-3)[Fuc(a1-2)]Gal(b1-4)GlcNAc
# Summary of the method: as §1
# Gal(b1-4)Glc = target: Gal(b1-4)Glc
# Summary of the method: as §1
# Gal(b1-4)Glc6S = target: Gal(b1-4)Glc6S
# Summary of the method: as §1
# Gal(b1-4)GlcNAc = target: Gal(b1-4)GlcNAc
# Summary of the method: as §1
# [17] = target: Gal(b1-4)GlcNAc(b1-2)Man(a1-3)[Gal(b1-4)GlcNAc(b1-2)Man(a1-6)]Man(b1-4)GlcNAc(b1-4)GlcNAc
# Summary of the method: as §1
# [18] = target: Gal(b1-4)GlcNAc(b1-3)Gal(b1-4)Glc
# Summary of the method: as §1
# [19] = target: Gal(b1-4)GlcNAc(b1-3)Gal(b1-4)GlcNAc
# Summary of the method: as §1
# [20] = target: Gal(b1-4)GlcNAc(b1-3)Gal(b1-4)GlcNAc(b1-3)Gal(b1-4)GlcNAc
# Summary of the method: as §1
# [21] = target: Gal(b1-4)GlcNAc(b1-3)Gal(b1-4)[Fuc(a1-3)]GlcNAc(b1-3)Gal(b1-4)[Fuc(a1-3)]GlcNAc
# Summary of the method: as §1
# [22] = target: Gal(b1-4)GlcNAc(b1-3)GalNAc
# Summary of the method: as §1
# [23] = target: Gal(b1-4)GlcNAc(b1-3)[Gal(b1-4)GlcNAc(b1-6)]GalNAc
# Summary of the method: as §1
# [24] = target: Gal(b1-4)GlcNAc(b1-6)GalNAc
# Summary of the method: as §1
# [25] = target: Gal(b1-4)GlcNAc(b1-6)[Gal(b1-3)]GalNAc
# Summary of the method: as §1
# [26] = target: Gal(b1-4)GlcNAc(b1-6)[Gal(b1-3)]GlcNAc
# Summary of the method: as §1
# Gal3S(b1-3)GalNAc = target: Gal3S(b1-3)GalNAc
# Summary of the method: as §1
# Gal3S(b1-3)GlcNAc = target: Gal3S(b1-3)GlcNAc
# Summary of the method: as §1
# [27] = target: Gal3S(b1-3)[Fuc(a1-4)]GlcNAc
# Summary of the method: as §1
# Gal3S(b1-4)Glc = target: Gal3S(b1-4)Glc
# Summary of the method: as §1
# Gal3S(b1-4)Glc6S = target: Gal3S(b1-4)Glc6S
# Summary of the method: as §1
# Gal3S(b1-4)GlcNAc = target: Gal3S(b1-4)GlcNAc
# Summary of the method: as §1
# Gal3S(b1-4)GlcNAc6S = target: Gal3S(b1-4)GlcNAc6S
# Summary of the method: as §1
# Gal3S6S(b1-4)GlcNAc = target: Gal3S6S(b1-4)GlcNAc
# Summary of the method: as §1
# Gal3S6S(b1-4)GlcNAc6S = target: Gal3S6S(b1-4)GlcNAc6S
# Summary of the method: as §1
# Gal4S(b1-4)GlcNAc = target: Gal4S(b1-4)GlcNAc
# Summary of the method: as §1
# Gal4S6S(b1-4)GlcNAc = target: Gal4S6S(b1-4)GlcNAc
# Summary of the method: as §1
binder,measurement,setting,value
NakA (Mycobacterium tuberculosum) (protein) SVVKPTKVTVFSPDGGADNPGEADLAIDGNPATSWKTDIYTDPVPFPSFKNGVGLMLQLPQATVVGTVAIDVASTGTKVEIRSASTPTPATLEDTAVLTSATALRPGHNTISVEAAAPTSNLLVWISTLGTTDGKSQADISEITIYAASD,glycan array binding signal (z-score),Gal(a1-4)GlcNAc,0.194
same,glycan array binding signal (z-score),Gal(a1-6)Glc,-0.122
same,glycan array binding signal (z-score),Gal(b1-2)Gal,-0.261
same,glycan array binding signal (z-score),Gal(b1-3)Gal,-0.154
same,glycan array binding signal (z-score),Gal(b1-3)GalNAc,-0.45
same,glycan array binding signal (z-score),[1],-0.428
same,glycan array binding signal (z-score),[2],-0.491
same,glycan array binding signal (z-score),[3],-0.519
same,glycan array binding signal (z-score),[4],-0.266
same,glycan array binding signal (z-score),[5],-0.456
same,glycan array binding signal (z-score),[6],-0.062
same,glycan array binding signal (z-score),[7],0.059
same,glycan array binding signal (z-score),[8],-0.089
same,glycan array binding signal (z-score),[9],-0.429
same,glycan array binding signal (z-score),[10],-0.396
same,glycan array binding signal (z-score),[11],-0.457
same,glycan array binding signal (z-score),[12],-0.536
same,glycan array binding signal (z-score),[13],-0.386
same,glycan array binding signal (z-score),[14],-0.353
same,glycan array binding signal (z-score),[15],-0.206
same,glycan array binding signal (z-score),[16],-0.312
same,glycan array binding signal (z-score),Gal(b1-4)Glc,-0.139
same,glycan array binding signal (z-score),Gal(b1-4)Glc6S,-0.423
same,glycan array binding signal (z-score),Gal(b1-4)GlcNAc,-0.385
same,glycan array binding signal (z-score),[17],-0.5
same,glycan array binding signal (z-score),[18],0.248
same,glycan array binding signal (z-score),[19],-0.429
same,glycan array binding signal (z-score),[20],-0.502
same,glycan array binding signal (z-score),[21],0.016
same,glycan array binding signal (z-score),[22],-0.439
same,glycan array binding signal (z-score),[23],-0.414
same,glycan array binding signal (z-score),[24],-0.141
same,glycan array binding signal (z-score),[25],-0.553
same,glycan array binding signal (z-score),[26],-0.465
same,glycan array binding signal (z-score),Gal3S(b1-3)GalNAc,-0.361
same,glycan array binding signal (z-score),Gal3S(b1-3)GlcNAc,-0.117
same,glycan array binding signal (z-score),[27],-0.128
same,glycan array binding signal (z-score),Gal3S(b1-4)Glc,-0.516
same,glycan array binding signal (z-score),Gal3S(b1-4)Glc6S,-0.365
same,glycan array binding signal (z-score),Gal3S(b1-4)GlcNAc,-0.408
same,glycan array binding signal (z-score),Gal3S(b1-4)GlcNAc6S,-0.367
same,glycan array binding signal (z-score),Gal3S6S(b1-4)GlcNAc,-0.287
same,glycan array binding signal (z-score),Gal3S6S(b1-4)GlcNAc6S,-0.182
same,glycan array binding signal (z-score),Gal4S(b1-4)GlcNAc,-0.338
same,glycan array binding signal (z-score),Gal4S6S(b1-4)GlcNAc,-0.438
